Target: T1, GFP-TDP43CTF (Homo sapiens, UniProt Q13148)
T1 construct: expressed in transfected cells; host or cells: HEK293
Assay: Fluorescence microscopy of GFP-TDP43CTF aggregation (GFP foci) in transfected HEK293 cells
Format: cell-based
Settings: GFP-TDP43CTF reporter, Table 12 (FIG. 8/9A)
Procedure: Expression vector plasmids encoding various protein constructs were transfected into HEK293 cells with Lipofectamine 3000 transfection reagent (Thermo Fisher Scientific). Cell lysates were analyzed for expressed proteins using immunoblot assays. Samples of culture media were centrifuged to remove debris prior to analysis. Cells were lysed in a lysis buffer (10 mM Tris-HCl, pH 8.0, 150 mM NaCl, 10 mM EDTA, 2% SDS) containing 2 mM PMSF and protease cocktail (Complete Protease Inhibitor Cocktail; Sigma). After brief sonication, the samples were analyzed for expressed proteins using immunoblot assays. For immunoblot analysis, samples were boiled in an SDS-sample buffer and run on polyacrylamide electrophoresis. Thereafter, the separated protein bands were transferred to a PVDF membrane.
In some instances, aggregation of TDP-43 (full-length of C-terminal fragment) GFP reporter constructs (described below) were detected in vivo using fluorescence microscopy. Cultured cells expressing the reporter constructs as well as the fusion protein comprising the J domain and TDP-43-binding domain were washed with PBS and fixed with 4% paraformaldehyde in PBS for 5 minutes. After three 5-min washes with PBS, nuclear DNA was stained with DAPI. Percentage of cells containing TDP-43 (GFP foci) in transfected cells was counted. […]

Molecule	% Aggregation (normalized to GFP-TDP43CTF alone) [%]
9 (protein) MGTMGKDYYQTLGLARGASDEEIKRAYRRQALRYHPDKNKEPGAEEKFKEIAEAYDVLSDPRKREIFDRYGEEGLKGSGPSGGSGGGANGTSFSYTFHGDPHAMFAEFFGGRNPFDTFFGQRNGEEGMDIDDPFSGFPMGMGGFTNVNFGRSRSAQEPARKKQ[about 150 residues not listed]PERIPQTSRTVLEQVLPI	56.31
14 (protein) MGKDYYQTLGLARGASDEEIKRAYRRQALRYHPDKNKEPGAEEKFKEIAEAYDVLSDPRKREIFDRYGEEGLKGSDIGGGGSGGGGSGGGGSGGGGSAAASNWKWWPGIFDGLESNWKWWPGIFDSRDYKDDDDK	28.55

Reference: patent US20240327477A1, “COMPOSITIONS AND METHODS FOR THE TREATMENT OF TDP-43 PROTEINOPATHIES” (SOLA BIOSCIENCES LLC, priority 2020, published 2024)
